Reference: the supplement of paper PMC8728848
The list shows a part of the results.

How the values were obtained:
Assay in all cases: glycan array binding signal (z-score within array); higher = stronger binding
Details in all cases: glycan notation: IUPAC condensed, linker removed
[1] = biological target: Fuc(a1-3)[Gal(b1-4)]GlcNAc(b1-3)Gal(b1-4)[Fuc(a1-3)]GlcNAc
How it was run: (§1)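 The binding signal is a Z-score computed within each array. Data were drawn from 3228 arrays in the Consortium for Functional Glycomics database, restricted to those with a known protein sequence. Scores were averaged over arrays of the same protein sequence at different concentrations or buffers, and over linkers, and negative values can be taken as non-binding.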

[2] = biological target: Fuc(a1-3)[Gal(b1-4)]GlcNAc(b1-3)Gal(b1-4)[Fuc(a1-3)]GlcNAc(b1-3)Gal(b1-4)[Fuc(a1-3)]GlcNAc
How it was run: as §1

[3] = biological target: Fuc(a1-3)[Gal(b1-4)]GlcNAc(b1-3)GalNAc
How it was run: as §1

[4] = biological target: Fuc(a1-3)[Gal(b1-4)]GlcNAc(b1-6)GalNAc
How it was run: as §1

[5] = biological target: Fuc(a1-3)[Gal(b1-4)]GlcNAc(b1-6)[Gal(b1-3)GlcNAc(b1-3)]Gal(b1-4)Glc
How it was run: as §1

[6] = biological target: Fuc(a1-3)[Gal(b1-4)]GlcNAc6S
How it was run: as §1

[7] = biological target: Fuc(a1-3)[Gal3S(b1-4)]Glc
How it was run: as §1

[8] = biological target: Fuc(a1-3)[Gal3S(b1-4)]GlcNAc
How it was run: as §1

[9] = biological target: Fuc(a1-3)[Gal3S(b1-4)]GlcNAc6S
How it was run: as §1

[10] = biological target: Fuc(a1-3)[GalNAc(b1-4)]GlcNAc
How it was run: as §1

[11] = biological target: Fuc(a1-3)[GalNAc(b1-4)]GlcNAc6S
How it was run: as §1

Fuc(a1-4)GlcNAc = biological target: Fuc(a1-4)GlcNAc
How it was run: as §1

Fuc(b1-3)GlcNAc = biological target: Fuc(b1-3)GlcNAc
How it was run: as §1

Gal(a1-2)Gal = biological target: Gal(a1-2)Gal
How it was run: as §1

Gal(a1-3)Gal = biological target: Gal(a1-3)Gal
How it was run: as §1

Gal(a1-3)Gal(b1-3)GlcNAc = biological target: Gal(a1-3)Gal(b1-3)GlcNAc
How it was run: as §1

[12] = biological target: Gal(a1-3)Gal(b1-3)GlcNAc(b1-2)Man
How it was run: as §1

[13] = biological target: Gal(a1-3)Gal(b1-3)GlcNAc(b1-2)Man(a1-3)[Gal(a1-3)Gal(b1-3)GlcNAc(b1-2)Man(a1-6)]Man(b1-4)GlcNAc(b1-4)GlcNAc
How it was run: as §1

[14] = biological target: Gal(a1-3)Gal(b1-3)GlcNAc(b1-3)GalNAc
How it was run: as §1

[15] = biological target: Gal(a1-3)Gal(b1-3)GlcNAc(b1-6)GalNAc
How it was run: as §1

[16] = biological target: Gal(a1-3)Gal(b1-3)[Fuc(a1-4)]GlcNAc(b1-2)Man(a1-3)[Gal(a1-3)Gal(b1-3)[Fuc(a1-4)]GlcNAc(b1-2)Man(a1-6)]Man(b1-4)GlcNAc(b1-4)GlcNAc
How it was run: as §1

Gal(a1-3)Gal(b1-4)Glc = biological target: Gal(a1-3)Gal(b1-4)Glc
How it was run: as §1

Gal(a1-3)Gal(b1-4)GlcNAc = biological target: Gal(a1-3)Gal(b1-4)GlcNAc
How it was run: as §1

[17] = biological target: Gal(a1-3)Gal(b1-4)GlcNAc(b1-2)Man
How it was run: as §1

[18] = biological target: Gal(a1-3)Gal(b1-4)GlcNAc(b1-2)Man(a1-3)[Gal(a1-3)Gal(b1-4)GlcNAc(b1-2)Man(a1-6)]Man(b1-4)GlcNAc(b1-4)GlcNAc
How it was run: as §1

[19] = biological target: Gal(a1-3)Gal(b1-4)GlcNAc(b1-3)GalNAc
How it was run: as §1

[20] = biological target: Gal(a1-3)Gal(b1-4)GlcNAc(b1-6)GalNAc
How it was run: as §1

[21] = biological target: Gal(a1-3)Gal(b1-4)[Fuc(a1-3)]GlcNAc
How it was run: as §1

[22] = biological target: Gal(a1-3)Gal(b1-4)[Fuc(a1-3)]GlcNAc(b1-2)Man(a1-3)[Gal(a1-3)Gal(b1-4)[Fuc(a1-3)]GlcNAc(b1-2)Man(a1-6)]Man(b1-4)GlcNAc(b1-4)GlcNAc
How it was run: as §1

Gal(a1-3)GalNAc = biological target: Gal(a1-3)GalNAc
How it was run: as §1

[23] = biological target: Gal(a1-3)[Gal(a1-4)]Gal(b1-4)GlcNAc
How it was run: as §1

[24] = biological target: Gal(a1-4)Gal(b1-3)GlcNAc(b1-2)Man(a1-3)[Gal(a1-4)Gal(b1-3)GlcNAc(b1-2)Man(a1-6)]Man(b1-4)GlcNAc(b1-4)GlcNAc
How it was run: as §1

Gal(a1-4)Gal(b1-4)Glc = biological target: Gal(a1-4)Gal(b1-4)Glc
How it was run: as §1

Gal(a1-4)Gal(b1-4)GlcNAc = biological target: Gal(a1-4)Gal(b1-4)GlcNAc
How it was run: as §1

[25] = biological target: Gal(a1-4)Gal(b1-4)GlcNAc(b1-2)Man(a1-3)[Gal(a1-4)Gal(b1-4)GlcNAc(b1-2)Man(a1-6)]Man(b1-4)GlcNAc(b1-4)GlcNAc
How it was run: as §1

[26] = biological target: Gal(a1-4)Gal(b1-4)GlcNAc(b1-3)Gal(b1-4)Glc
How it was run: as §1

Gal(a1-4)GlcNAc = biological target: Gal(a1-4)GlcNAc
How it was run: as §1

Gal(a1-6)Glc = biological target: Gal(a1-6)Glc
How it was run: as §1

B1: OGAA (protein)
chain: MVQKESQATLEERESELSSNPAASAGASLEPPAAPAPGEDNPAGAGGAAVAGAAGGARRFLCGVVEGFYGRPWVMEQRKELFRRLQKWELNTYLYAPKDDYKHRMFWREMYSVEEAEQLMTLISAAREYEIEFIYAISPGLDITFSNPKEVSTLKRKLDQVSQFGCRSFALLFADIDHNMCAADKEVFSSFAHAQVSITNEIYQYLGEPETFLFCPTEYCGTFCYPNVSQSPYLRTVGEKLLPGIEVLWTGPKVVSKEIPVESIEEVSKIIKRAPVIWDNIHANDYDQKRLFLGPYKGRSTELIPRLKGVLTNPNCEFEANYVAIHTLATWYKSNMNGVRKDVVMTDSEDSTVSIQIKLENEGSDEDIETDVLYSPQMALKLALTEWLQEFGVPHQY
glycan array binding signal (z-score) [1]: 0.1 | glycan array binding signal (z-score) [2]: -0.104 | glycan array binding signal (z-score) [3]: -0.113 | glycan array binding signal (z-score) [4]: 0.242 | glycan array binding signal (z-score) [5]: -0.127 | glycan array binding signal (z-score) [6]: -0.107 | glycan array binding signal (z-score) [7]: -0.02 | glycan array binding signal (z-score) [8]: -0.012 | glycan array binding signal (z-score) [9]: 0.008 | glycan array binding signal (z-score) [10]: -0.062 | glycan array binding signal (z-score) [11]: -0.107 | glycan array binding signal (z-score) (Fuc(a1-4)GlcNAc): -0.06 | glycan array binding signal (z-score) (Fuc(b1-3)GlcNAc): -0.13 | glycan array binding signal (z-score) (Gal(a1-2)Gal): 0.002 | glycan array binding signal (z-score) (Gal(a1-3)Gal): -0.053 | glycan array binding signal (z-score) (Gal(a1-3)Gal(b1-3)GlcNAc): -0.053 | glycan array binding signal (z-score) [12]: -0.106 | glycan array binding signal (z-score) [13]: 0.031 | glycan array binding signal (z-score) [14]: -0.057 | glycan array binding signal (z-score) [15]: -0.107 | glycan array binding signal (z-score) [16]: 0.142 | glycan array binding signal (z-score) (Gal(a1-3)Gal(b1-4)Glc): -0.092 | glycan array binding signal (z-score) (Gal(a1-3)Gal(b1-4)GlcNAc): 0.005 | glycan array binding signal (z-score) [17]: 0.001 | glycan array binding signal (z-score) [18]: -0.028 | glycan array binding signal (z-score) [19]: -0.078 | glycan array binding signal (z-score) [20]: -0.074 | glycan array binding signal (z-score) [21]: -0.043 | glycan array binding signal (z-score) [22]: 0.644 | glycan array binding signal (z-score) (Gal(a1-3)GalNAc): -0.094 | glycan array binding signal (z-score) [23]: -0.087 | glycan array binding signal (z-score) [24]: -0.007 | glycan array binding signal (z-score) (Gal(a1-4)Gal(b1-4)Glc): -0.062 | glycan array binding signal (z-score) (Gal(a1-4)Gal(b1-4)GlcNAc): -0.077 | glycan array binding signal (z-score) [25]: -0.095 | glycan array binding signal (z-score) [26]: -0.098 | glycan array binding signal (z-score) (Gal(a1-4)GlcNAc): -0.078 | glycan array binding signal (z-score) (Gal(a1-6)Glc): -0.015
